The values that follow come from the supplement of paper PMC10369915.

The other results are listed elsewhere or left out. Cut-off read from the data, not from the text of the source: active = 3.2 or more and inactive = the rest. Most of these values are background signal.
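Note: displayed peptides selected on beads carrying the immobilized SH2 domain, with library peptides lacking any tyrosine serving as negative controls.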

One experiment concerns the target SHP2 C-SH2 domain E139D. Kind of experiment: enrichment score (SH2-bound / input frequency) (ratio); bacterial display of known human phosphotyrosine sites (pTyr-Var adds point mutants) read by sequencing; higher = stronger binding; tyrosines were phosphorylated by kinases first. The settings on record: peptide library: pTyr-Var.
On to HSHTRYERNIE [F2_Y434_R431H], for which the enrichment score is inactive: 2.22.
Consider YHRQLYHKCTH [F12_Y58], for which the enrichment score was active: 3.49.
For HFPFQCHRQLF [F12_Y53_Y53C_YF], the enrichment score was inactive: 1.71.
Regarding RIDRKYKKVRF [F8_Y442_G439D], the enrichment score is inactive: 0.372.
Take VTGWGYRKLRE [F11_Y521_D526E]: the enrichment score is inactive: 0.323.
For RKKEEYKMALY [F8_Y1990], the enrichment score was inactive: 1.14.
Still for that read-out and setting: next, EFISESCGEII [EZH2_Y641_Y641S]: inactive: 0.563; FHRQLYHKCTH [F12_Y58_YF]: inactive: 2.31; MCVKSYTIHFS [F5_Y2153_Y2149C_YF]: inactive: 0.972.
Still for that read-out and setting: next, HFPFQYHRQLF [F12_Y53_YF]: active: 3.26.
As for RALRHYYKLNI [ETV6_Y401], the enrichment score is active: 4.12.
The same measure, in the same setting: the value for ERLWDCGMSSS [F8_Y1728_Y1728C] was inactive: 0.92; that for DPASAYADEVK [ETNPPL_Y189_S185P] was inactive: 0.552; that for MLEVSYVDRNS [F10_Y384_P383S] was inactive: 0.875.
On the same count and under the same terms, next, LSSEMYVKSYT [F5_Y2149]: inactive: 0.795; MFCAGYDTKQE [F10_Y407]: inactive: 1.19; GKFRMYVAVWT [F13A1_Y161]: inactive: 0.564.
Take ALRHFYKLNII [ETV6_Y402_YF]: the enrichment score was active: 5.04.
Regarding LSSETYVKSFT [F5_Y2149_M2148T_YF], the enrichment score is inactive: 0.833.

A further experiment concerns the target SHP2 C-SH2 domain wild-type. Described as above. The note with it: peptide library: pTyr-Var.
Take HSHTRYERNIE [F2_Y434_R431H]: the enrichment score was inactive: 1.63.
Still for that read-out and setting: the value for YHRQLYHKCTH [F12_Y58] was inactive: 3.09; that for HFPFQCHRQLF [F12_Y53_Y53C_YF] was inactive: 1.99.
As for RIDRKYKKVRF [F8_Y442_G439D], the enrichment score was inactive: 0.231.
For VTGWGYRKLRE [F11_Y521_D526E], the enrichment score was inactive: 0.327.
With RKKEEYKMALY [F8_Y1990], the enrichment score is inactive: 0.779.
As to EFISESCGEII [EZH2_Y641_Y641S], the enrichment score is inactive: 1.19.
Same read-out and setting: the value for FHRQLYHKCTH [F12_Y58_YF] was inactive: 2.39.
As for MCVKSYTIHFS [F5_Y2153_Y2149C_YF], the enrichment score is inactive: 1.11.
For the molecule HFPFQYHRQLF [F12_Y53_YF], the enrichment score was inactive: 2.42.
For RALRHYYKLNI [ETV6_Y401], the enrichment score is active: 3.43.
On the same count and under the same terms, next, ERLWDCGMSSS [F8_Y1728_Y1728C]: inactive: 0.678; DPASAYADEVK [ETNPPL_Y189_S185P]: inactive: 0.638; MLEVSYVDRNS [F10_Y384_P383S]: inactive: 0.752.
The same measure, in the same setting: next, LSSEMYVKSYT [F5_Y2149]: inactive: 0.787; MFCAGYDTKQE [F10_Y407]: inactive: 1.35.
The same measure, in the same setting: the value for GKFRMYVAVWT [F13A1_Y161] was inactive: 0.817; that for ALRHFYKLNII [ETV6_Y402_YF] was active: 4.95; that for LSSETYVKSFT [F5_Y2149_M2148T_YF] was inactive: 1.12.

The next experiment has as its target SHP2 N-SH2 domain L43F. Described as above. The note with it: peptide library: pTyr-Var.
Consider HSHTRYERNIE [F2_Y434_R431H], for which the enrichment score is inactive: 1.82.
Still for that read-out and setting: next, YHRQLYHKCTH [F12_Y58]: inactive: 3.05; HFPFQCHRQLF [F12_Y53_Y53C_YF]: inactive: 2.03; RIDRKYKKVRF [F8_Y442_G439D]: inactive: 0.227.
Still for that read-out and setting: next, VTGWGYRKLRE [F11_Y521_D526E]: inactive: 0.263; RKKEEYKMALY [F8_Y1990]: inactive: 0.823.
Still for that read-out and setting: next, EFISESCGEII [EZH2_Y641_Y641S]: inactive: 0.52; FHRQLYHKCTH [F12_Y58_YF]: inactive: 2.52.
Take MCVKSYTIHFS [F5_Y2153_Y2149C_YF]: the enrichment score was inactive: 1.06.
Same read-out and setting: the value for HFPFQYHRQLF [F12_Y53_YF] was active: 3.27; that for RALRHYYKLNI [ETV6_Y401] was active: 3.64.
Still for that read-out and setting: the value for ERLWDCGMSSS [F8_Y1728_Y1728C] was inactive: 0.739.
The same measure, in the same setting: next, DPASAYADEVK [ETNPPL_Y189_S185P]: inactive: 0.566; MLEVSYVDRNS [F10_Y384_P383S]: inactive: 0.91.
On to LSSEMYVKSYT [F5_Y2149], for which the enrichment score is inactive: 0.771.
The same measure, in the same setting: next, MFCAGYDTKQE [F10_Y407]: inactive: 1.14; GKFRMYVAVWT [F13A1_Y161]: inactive: 0.507; ALRHFYKLNII [ETV6_Y402_YF]: active: 4.31.
On the same count and under the same terms, next, LSSETYVKSFT [F5_Y2149_M2148T_YF]: inactive: 0.818.

The next experiment concerns the target SHP2 N-SH2 domain T42A. The description is as above. The settings on record: peptide library: pTyr-Var.
Regarding HSHTRYERNIE [F2_Y434_R431H], the enrichment score was inactive: 1.96.
The same measure, in the same setting: next, YHRQLYHKCTH [F12_Y58]: inactive: 2.74; HFPFQCHRQLF [F12_Y53_Y53C_YF]: inactive: 1.94.
On the same count and under the same terms, the value for RIDRKYKKVRF [F8_Y442_G439D] was inactive: 0.365; that for VTGWGYRKLRE [F11_Y521_D526E] was inactive: 0.224; that for RKKEEYKMALY [F8_Y1990] was inactive: 0.951.
On the same count and under the same terms, next, EFISESCGEII [EZH2_Y641_Y641S]: inactive: 0.642; FHRQLYHKCTH [F12_Y58_YF]: inactive: 1.54.
Turning to MCVKSYTIHFS [F5_Y2153_Y2149C_YF], the enrichment score is inactive: 0.879.
Consider HFPFQYHRQLF [F12_Y53_YF], for which the enrichment score was inactive: 3.18.
The same measure, in the same setting: the value for RALRHYYKLNI [ETV6_Y401] was inactive: 2.73; that for ERLWDCGMSSS [F8_Y1728_Y1728C] was inactive: 0.659.
Regarding DPASAYADEVK [ETNPPL_Y189_S185P], the enrichment score is inactive: 0.554.
Regarding MLEVSYVDRNS [F10_Y384_P383S], the enrichment score was inactive: 0.723.
Still for that read-out and setting: the value for LSSEMYVKSYT [F5_Y2149] was inactive: 0.655; that for MFCAGYDTKQE [F10_Y407] was inactive: 0.974.
For GKFRMYVAVWT [F13A1_Y161], the enrichment score was inactive: 0.589.
On the same count and under the same terms, next, ALRHFYKLNII [ETV6_Y402_YF]: active: 4.11; LSSETYVKSFT [F5_Y2149_M2148T_YF]: inactive: 0.751.

A further experiment concerns the target SHP2 N-SH2 domain T52S. The description is as above. The settings on record: peptide library: pTyr-Var.
HSHTRYERNIE [F2_Y434_R431H]: the enrichment score was inactive: 1.98.
For the molecule YHRQLYHKCTH [F12_Y58], the enrichment score is inactive: 2.75.
With HFPFQCHRQLF [F12_Y53_Y53C_YF], the enrichment score is inactive: 2.18.
Still for that read-out and setting: next, RIDRKYKKVRF [F8_Y442_G439D]: inactive: 0.323; VTGWGYRKLRE [F11_Y521_D526E]: inactive: 0.258; RKKEEYKMALY [F8_Y1990]: inactive: 1.27.
Turning to EFISESCGEII [EZH2_Y641_Y641S], the enrichment score is inactive: 0.366.
As to FHRQLYHKCTH [F12_Y58_YF], the enrichment score is inactive: 2.59.
The same measure, in the same setting: next, MCVKSYTIHFS [F5_Y2153_Y2149C_YF]: inactive: 0.858.
Still for that read-out and setting: the value for HFPFQYHRQLF [F12_Y53_YF] was inactive: 3.17; that for RALRHYYKLNI [ETV6_Y401] was active: 3.93; that for ERLWDCGMSSS [F8_Y1728_Y1728C] was inactive: 0.686.
The same measure, in the same setting: the value for DPASAYADEVK [ETNPPL_Y189_S185P] was inactive: 0.604; that for MLEVSYVDRNS [F10_Y384_P383S] was inactive: 0.667; that for LSSEMYVKSYT [F5_Y2149] was inactive: 0.79.
For MFCAGYDTKQE [F10_Y407], the enrichment score was inactive: 1.04.
Still for that read-out and setting: next, GKFRMYVAVWT [F13A1_Y161]: inactive: 0.573; ALRHFYKLNII [ETV6_Y402_YF]: active: 4.35.
For LSSETYVKSFT [F5_Y2149_M2148T_YF], the enrichment score is inactive: 0.623.

In the next experiment the target is SHP2 N-SH2 domain wild-type. The description is as above. The note with it: peptide library: pTyr-Var.
As to HSHTRYERNIE [F2_Y434_R431H], the enrichment score was inactive: 2.27.
On the same count and under the same terms, the value for YHRQLYHKCTH [F12_Y58] was inactive: 2.92; that for HFPFQCHRQLF [F12_Y53_Y53C_YF] was inactive: 1.5; that for RIDRKYKKVRF [F8_Y442_G439D] was inactive: 0.338.
As to VTGWGYRKLRE [F11_Y521_D526E], the enrichment score is inactive: 0.301.
For the molecule RKKEEYKMALY [F8_Y1990], the enrichment score was inactive: 0.951.
Consider EFISESCGEII [EZH2_Y641_Y641S], for which the enrichment score was inactive: 0.64.
Regarding FHRQLYHKCTH [F12_Y58_YF], the enrichment score was inactive: 2.21.
Still for that read-out and setting: next, MCVKSYTIHFS [F5_Y2153_Y2149C_YF]: inactive: 1.17.
Same read-out and setting: next, HFPFQYHRQLF [F12_Y53_YF]: inactive: 3.11; RALRHYYKLNI [ETV6_Y401]: active: 3.66; ERLWDCGMSSS [F8_Y1728_Y1728C]: inactive: 0.728.
The same measure, in the same setting: the value for DPASAYADEVK [ETNPPL_Y189_S185P] was inactive: 0.63; that for MLEVSYVDRNS [F10_Y384_P383S] was inactive: 1.2; that for LSSEMYVKSYT [F5_Y2149] was inactive: 0.905.
For MFCAGYDTKQE [F10_Y407], the enrichment score was inactive: 1.52.
Take GKFRMYVAVWT [F13A1_Y161]: the enrichment score was inactive: 0.921.
Turning to ALRHFYKLNII [ETV6_Y402_YF], the enrichment score was active: 4.78.
Still for that read-out and setting: the value for LSSETYVKSFT [F5_Y2149_M2148T_YF] was inactive: 0.662.
